# Measurements from article PMC4336329 (PLoS ONE, 2015).
# The whole screen tested about 310,000 compounds, of which about 2,200 (0.71%) showed an effect of 50% or more. Effects have a minus sign here. Some of the results follow.
# Target: human ether-à-go-go-related gene (hERG) potassium channel (human, UniProt Q12809)
# Assay: primary screen, population patch clamp on CHO cells stably expressing hERG
# Sequence of human ether-à-go-go-related gene (hERG) potassium channel (Q12809 whole entry, looked up): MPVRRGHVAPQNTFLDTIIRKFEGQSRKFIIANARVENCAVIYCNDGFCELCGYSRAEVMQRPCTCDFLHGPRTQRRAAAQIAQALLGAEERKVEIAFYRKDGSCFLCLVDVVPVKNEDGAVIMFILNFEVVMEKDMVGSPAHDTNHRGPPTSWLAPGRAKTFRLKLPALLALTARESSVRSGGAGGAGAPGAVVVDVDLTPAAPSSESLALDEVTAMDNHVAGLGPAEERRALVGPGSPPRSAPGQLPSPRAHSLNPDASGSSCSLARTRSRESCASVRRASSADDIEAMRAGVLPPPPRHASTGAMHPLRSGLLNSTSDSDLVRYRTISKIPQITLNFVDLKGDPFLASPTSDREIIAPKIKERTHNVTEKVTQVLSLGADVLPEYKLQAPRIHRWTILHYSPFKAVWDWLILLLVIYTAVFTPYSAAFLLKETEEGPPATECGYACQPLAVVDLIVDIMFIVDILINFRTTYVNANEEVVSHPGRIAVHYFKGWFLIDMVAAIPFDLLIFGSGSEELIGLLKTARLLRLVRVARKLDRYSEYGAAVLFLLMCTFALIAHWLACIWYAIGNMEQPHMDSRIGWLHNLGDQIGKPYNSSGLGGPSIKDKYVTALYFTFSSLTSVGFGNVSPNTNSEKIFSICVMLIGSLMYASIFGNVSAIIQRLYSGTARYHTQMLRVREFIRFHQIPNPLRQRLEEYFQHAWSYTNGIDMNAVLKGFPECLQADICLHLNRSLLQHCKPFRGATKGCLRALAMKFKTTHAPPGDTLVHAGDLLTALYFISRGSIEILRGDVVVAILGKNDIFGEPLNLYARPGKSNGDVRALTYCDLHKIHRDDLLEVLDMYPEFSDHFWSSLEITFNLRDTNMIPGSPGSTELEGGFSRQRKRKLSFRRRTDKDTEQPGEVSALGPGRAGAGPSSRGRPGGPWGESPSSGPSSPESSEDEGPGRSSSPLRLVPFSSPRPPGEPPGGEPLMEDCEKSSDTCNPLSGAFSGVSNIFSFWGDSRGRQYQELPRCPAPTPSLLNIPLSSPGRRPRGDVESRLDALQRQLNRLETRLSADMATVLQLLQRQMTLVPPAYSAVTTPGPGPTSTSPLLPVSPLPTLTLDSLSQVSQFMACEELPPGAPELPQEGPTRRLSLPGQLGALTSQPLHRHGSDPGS
row,Structure (SMILES),"hERG current change (%, negative = inhibition) at 1uM [%]"
1,CSCCC(NC(=O)c1ccccc1)C(=O)Nc1ccncc1 (stereo not shown),4.03
2,CC(C1CC1)N(C(=O)NC1CCS(=O)(=O)C1)c1ccccc1 (stereo not shown),6.55
3,NS(=O)(=O)c1ccc2nc(NC(=O)C3=COCCO3)sc2c1,12.3
4,CN(CCO)c1ccc(-c2nn(C)c(=O)c3ccccc23)cc1[N+](=O)[O-],9.86
5,Cc1ccc(/C=N/N2CCN(Cc3cccc4ccccc34)CC2)o1,8.84
6,O=C(CSc1ncc(-c2ccccc2)[nH]1)Nc1cccc(O)c1,2.59
7,Cc1ccc(-n2nc(C)c(Sc3ccccc3[N+](=O)[O-])c2N)cc1,5.25
8,COc1ccc(CN(C2CCCC2)S(=O)(=O)c2ccc(-n3cnnn3)cc2)cc1OC,-18.9
9,Cc1nc2ccccc2c(C)c1CC(=O)N(C)CC(=O)Nc1cccc(F)c1,-13.2
10,CCN(CC)c1ccc(/C=N/N2CCN(Cc3ccccc3)CC2)c(O)c1,-0.743
11,Cc1ccccc1NC(=O)Nc1ccccc1C(=O)NCc1ccccc1,0.0206
12,Cc1cc(C)n(Cc2cccc(C(=O)N/N=C/c3ccncc3)c2)n1,11.1
13,CCc1nnc(NC(=O)CSc2ccc(-c3nc4ccc(C)cc4[nH]3)cn2)s1,13.2
14,Nc1nonc1C(=O)OCC(=O)N1CCCCC1,15.7
15,COc1ccccc1N=Cc1c(O)n(C)c(=O)n(C)c1=O,6.27
16,Cc1cccc(N(C(=O)c2csnn2)C(C(=O)NC(C)(C)C)c2cccnc2)c1 (stereo not shown),13.6
17,O=c1c2cc(Cl)cc(Cl)c2nc2n1CCC2,15.2
18,CCn1c(SCC(=O)Nc2sc3c(c2C#N)CCCC3)nnc1-c1ccco1,-8.69
19,O=C1C(=O)N(O)C2CCCCC2N1O (stereo not shown),10.6
20,Cc1ccc(NC2CCCN(C(=O)CCC3(C)CC3)C2)cc1C (stereo not shown),2.52
21,O=C(CSc1ccc2nnc(CCNC(=O)c3ccccc3)n2n1)NC1CCCC1,11.6
22,Cc1ccc(C(=O)Nc2ccc(S(=O)(=O)Nc3ncccn3)cc2)cc1[N+](=O)[O-],12.6
23,COc1ccc(NC(=S)NCC(c2ccco2)N2CCCC2)cc1 (stereo not shown),2.66
24,O=C(O)C1C2C=CC(C2)C1C(=O)Nc1cccc(C(=O)N2CCCCC2)c1 (stereo not shown),1.41
25,CC(C)CC(C(=O)Nc1ccccc1)N1C(=O)C2C3C=CC(C3)C2C1=O (stereo not shown),8.47
26,COC(=O)C1=C(c2ccc3ccccc3c2)C[C@@H]2CC[C@H]1N2C(=O)NC1Cc2ccccc2C1,10.6
27,Cc1cccc(N2CC(C)Cn3c2nc2c3c(=O)n(CC(=O)OCc3ccccc3)c(=O)n2C)c1 (stereo not shown),11.3
28,O=C(NCc1ccc2c(c1)OCO2)C1CCN(Cc2cnn(-c3ccccc3)c2-n2cccc2)CC1,-18.8

row,Structure (SMILES),"hERG current change (%, negative = inhibition) at 1uM [%]"
1,CCCCCCCSc1cc(OC)c(CCNC)cc1OC.O=C(O)/C=C\C(=O)O,0.868
2,O=c1[nH]c(SCc2ccc(Cl)cc2)nc2c1CCC2,8.02
3,C=CCn1c(SC2CCOC2=O)nc2scc(C3CC3)c2c1=O (stereo not shown),-11.6
4,CCOCCCNC(=S)N(CCO)Cc1cc2cc3c(cc2[nH]c1=O)OCCO3,16.6
5,CN1CCN(S(=O)(=O)c2ccc3[nH]c(=O)oc3c2)CC1,-1.23
6,O=C(NCC(=O)N1CCN(c2ccccc2F)CC1)c1ccc(Br)o1,-6.22
7,Cc1sc(NC(=O)c2ccc(Br)s2)c(C(N)=O)c1C,18.8
8,C=CCN(Cc1nc(-c2cc(OC)c3c(c2)OCO3)oc1C)C1CCS(=O)(=O)C1 (stereo not shown),10
9,CC(OC(=O)C1=NNC(=O)CC1)C(=O)Nc1ncc(Cl)cc1Cl (stereo not shown),8.74
10,CCCN1C=CC(=CC=C(C#N)C#N)C=C1,8.7
11,Cc1ccccc1N(CC(=O)N/N=C/c1ccc(Cl)cc1)C(=O)c1ccccc1,10.6
12,O=C(NCCCN1CCOCC1)C(=O)NCCc1ccccc1,11.6
13,CCN(CC(=O)Nc1c(F)cccc1F)C(=O)CCc1nc2cc(S(=O)(=O)N(C)C)ccc2n1CC,4.54
14,Cn1c(-c2ccccc2)n[nH]c1=S,0.362
15,C=CCn1c(N)c(C(=O)Nc2ccc(C)c(C)c2)c2nc3ccccc3nc21,16.9
16,CC(C)(C)c1ccc(/C=C2\Oc3cc(OC(=O)N4CCOCC4)ccc3C2=O)cc1,1.94
17,CCOc1ncccc1C(=O)NCCCSc1ccccc1,-15.8
18,COc1cccc(-c2cc(C(F)(F)F)nc(-n3ccc([N+](=O)[O-])n3)n2)c1,6.28
19,CCc1ccc2c(CSc3nnnn3C)cc(=O)oc2c1,-14.4
20,CCC(=O)Nc1c(S(=O)(=O)c2ccc(C)cc2)c2nc3ccccc3nc2n1C(C)c1ccccc1 (stereo not shown),2.06
21,COc1ccc(CNC(=O)C[C@H]2C(=O)N(Cc3ccccc3)C[C@@H]2Cc2ccccc2)cc1,10.1
22,O=C(CNC(=O)c1ccc2c(c1)OCO2)N/N=C/c1cccc([N+](=O)[O-])c1,7.12
23,COC(=O)c1c(NC(=O)CCC(=O)O)sc2c1CCCCC2,7.59
24,CCCOc1ccc(N2C(=O)CC(N3CCN(C(=O)c4ccco4)CC3)C2=O)cc1 (stereo not shown),-2.69
25,CCOc1ccc2nc(NC(=O)Cn3cnc4c3c(=O)n(C)c(=O)n4C)sc2c1,-34.2
26,O=C(CNC(=O)c1ccc(Cl)cc1)Nc1ccc(Br)cc1C(=O)c1ccccc1,3.47
27,COc1ccc(N2CCN(C(=O)CSc3nnc(C)c(=O)[nH]3)CC2)cc1,3.37
